Experimental data: the supplement of paper PMC12217912
The list shows a part of the results. Sequences were assembled here from the parent chain. Inactive controls read about 0.05.

B1: TEV protease; numbered along this chain (parent)
chain: MGESLFKGPRDYNPISSSICHLTNESDGHTTSLYGIGFGPFIITNKHLFRRNNGTLVVQSLHGVFKVKDTTTLQQHLVDGRDMIIIRMPKDFPPFPQKLKFREPQREERICLVTTNFQTKSMSSMVSDTSCTFPSGDGIFWKHWIQTKDGQCGSPLVSTRDGFIVGIHSASNFTNTNNYFTSVPKNFMELLTNQEAQQWVSGWRLNADSVLWGGHKVFMVKPEEPFQPVKEATQL

Variants of: B1
Assay: raw area under fraction-flipped curve 0-4 h after induction (AUC4h, not background-subtracted), DNA-recorder readout of cleavage of the substrate (dimensionless); higher = more cleavage of the substrate by the protease variant
Details: temperature: 34 °C; time window: 0-4 h after rhamnose induction
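Also: Bxb1 expression induced with 0.2% (w/v) L-rhamnose at OD600 near 0.5, cultures sampled hourly, flipped fraction per protease–substrate barcode pair counted by paired-end Illumina sequencing.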

Variant | area with substrate ENLYEQS | area with substrate ENLYIQS | area with substrate ENLYMQS | area with substrate ENLYNQS | area with substrate ENLYPQS | area with substrate ENLYQQS | area with substrate ENLYRQS | area with substrate ENLYYQS | area with substrate ENLYGQS | area with substrate ENLYHQS | area with substrate ENLYKQS | area with substrate ENLYLQS | area with substrate ENLYSQS | area with substrate ENLYVQS | area with substrate ENLYWQS | area with substrate ENLYTQS
MGESCFKGPRDYNPISSSICHLTNESDGHTTSLYGIGFGPFIITNKHLFRRNNGTLVVQSLHGVFKVKDTTTLQQHLVDGRDMIIIRMPKDFPPFPQKLKFREPQREERICLVTTNFQTKSMSSMVSDTSCTFPSGDGIFWKHWIQTKDGQCGSPLVSTRDGFIVGIHSASNFTNTNNYFTSVPKNFMELLTNQEAQQWVSGWRLNADSVLWGGHKVFMVKPEEPFQPVKEATQL [L5C] | 0.0739 | 0.141 | 0.0692 | 0.0581 | 0.0816 | 0.0639 | 0.0596 | 0.068 |  |  |  |  |  |  |  | 
MGESNFKGPRDYNPISSSICHLTNESDGHTTSLYGIGFGPFIITNKHLFRRNNGTLVVQSLHGVFKVKDTTTLQQHLVDGRDMIIIRMPKDFPPFPQKLKFREPQREERICLVTTNFQTKSMSSMVSDTSCTFPSGDGIFWKHWIQTKDGQCGSPLVSTRDGFIVGIHSASNFTNTNNYFTSVPKNFMELLTNQEAQQWVSGWRLNADSVLWGGHKVFMVKPEEPFQPVKEATQL [L5N] | 0.0541 | 0.161 |  |  | 0.0705 | 0.0714 | 0.0472 | 0.069 | 0.0646 | 0.0745 | 0.0321 | 0.0919 | 0.0718 | 0.108 | 0.0926 | 
MGESLFKGPRDYNPISSSICHLTNESDGHTTSLYGIGFGPFIITNKHLFRRNNGTLVVQSLHGVFKVKDTTTLQQHLVDGRDMIIIRMPKDFPPDPQKLKFREPQREERICLVTTNFQTKSMSSMVSDTSCTFPSGDGIFWKHWIQTKDGQCGSPLVSTRDGFIVGIHSASNFTNTNNYFTSVPKNFMELLTNQEAQQWVSGWRLNADSVLWGGHKVFMVKPEEPFQPVKEATQL [F95D] | 0.0526 | 0.0508 |  | 0.0548 |  |  |  |  |  |  |  |  |  |  |  | 
MGESLFKGPRDYNPISSSICHLTNESDGHTTSLYGIGFGPFIITNKHLFRRNNGTLVVQSLHGVFKVKDTTTLQQHLVDGRDMIIIRMPKDFPPFPQKLKFREPQREERICLITTNFQTKSMSSMVSDTSCTFPSGDGIFWKHWIQTKDGQCGSPLVSTRDGFIVGIHSASNFTNTNNYFTSVPKNFMELLTNQEAQQWVSGWRLNADSVLWGGHKVFMVKPEEPFQPVKEATQL [V113I] | 0.0596 | 0.114 | 0.0915 | 0.12 |  | 0.0584 |  | 0.0632 |  | 0.0618 | 0.0253 |  |  |  | 0.0752 | 
MGESLFKGPRDYNPISSSICHLTNESDGHTTSLYGIGFGPFIITNKHLFRRNNGTLVVQSLHGVFKVKDNTTLQQHLVDGRDMIIIRMPKDFPPFPQKLKFREPQREERICLVTTNFQTKSMSSMVSDTSCTFPSGDGIFWKHWIQTKDGQCGSPLVSTRDGFIVGIHSASNFTNTNNYFTSVPKNFMELLTNQEAQQWVSGWRLNADSVLWGGHKVFMVKPEEPFQPVKEATQL [T70N] | 0.0563 | 0.0729 |  | 0.0602 |  | 0.0525 |  | 0.0266 |  |  |  |  |  | 0.0772 | 0.0667 | 
MGESLFKGPRDYNPISSSICHLTNESDGHTTSLYGIGFGPFIITNKHLFRRNNGTLVVQSLHGVFKVKDTTTLQQHLVDGRDMIIIRMMKDFPPFPQKLKFREPQREERICLVTTNFQTKSMSSMVSDTSCTFPSGDGIFWKHWIQTKDGQCGSPLVSTRDGFIVGIHSASNFTNTNNYFTSVPKNFMELLTNQEAQQWVSGWRLNADSVLWGGHKVFMVKPEEPFQPVKEATQL [P89M] | 0.0556 |  | 0.055 | 0.0601 | 0.071 | 0.0449 |  |  |  | 0.0605 | 0.0403 |  | 0.0528 | 0.0747 | 0.0676 | 
MGESLFKGPRDYNPISSSICHLTNESDGHTTSLYGIGFGPFIITNKHLFRRNNGTLVVQSLHGVFKVHDTTTLQQHLVDGRDMIIIRMPKDFPPFPQKLKFREPQREERICLVTTNFQTKSMSSMVSDTSCTFPSGDGIFWKHWIQTKDGQCGSPLVSTRDGFIVGIHSASNFTNTNNYFTSVPKNFMELLTNQEAQQWVSGWRLNADSVLWGGHKVFMVKPEEPFQPVKEATQL [K68H] | 0.0747 |  |  | 0.0951 | 0.0692 | 0.0684 |  | 0.0619 | 0.0685 | 0.0778 | 0.0625 | 0.11 | 0.099 | 0.108 |  | 
MGESLFKGPRDYNPISSSICHLTNESDGHTTSLYGIGFGPFIITNKHLFRRNNGTLVVQSLHGVFKVDDTTTLQQHLVDGRDMIIIRMPKDFPPFPQKLKFREPQREERICLVTTNFQTKSMSSMVSDTSCTFPSGDGIFWKHWIQTKDGQCGSPLVSTRDGFIVGIHSASNFTNTNNYFTSVPKNFMELLTNQEAQQWVSGWRLNADSVLWGGHKVFMVKPEEPFQPVKEATQL [K68D] | 0.0715 |  | 0.0887 | 0.0732 | 0.0809 | 0.0874 |  |  | 0.0625 | 0.0664 |  |  | 0.076 |  | 0.0719 | 
MGESLFKGPRDYNPISSSICHLTNESDGHTTSLYGIGFGPFIITNKHLFRRNNGTLVVQSLHGVFKVKDTTTLQQHLVDGRDMTIIRMPKDFPPFPQKLKFREPQREERICLVTTNFQTKSMSSMVSDTSCTFPSGDGIFWKHWIQTKDGQCGSPLVSTRDGFIVGIHSASNFTNTNNYFTSVPKNFMELLTNQEAQQWVSGWRLNADSVLWGGHKVFMVKPEEPFQPVKEATQL [I84T] | 0.0571 | 0.117 | 0.0615 | 0.0511 | 0.0612 |  |  |  |  | 0.0416 | 0.065 |  |  |  |  | 
MGESLFKGPRDYNPISSSICHLTNESDGHTTSLYGIGFGPFIITNKHLFRRNNGTLVVLSLHGVFKVKDTTTLQQHLVDGRDMIIIRMPKDFPPFPQKLKFREPQREERICLVTTNFQTKSMSSMVSDTSCTFPSGDGIFWKHWIQTKDGQCGSPLVSTRDGFIVGIHSASNFTNTNNYFTSVPKNFMELLTNQEAQQWVSGWRLNADSVLWGGHKVFMVKPEEPFQPVKEATQL [Q59L] | 0.0697 | 0.112 |  | 0.06 | 0.0791 |  | 0.0579 |  | 0.0623 |  |  |  |  |  |  | 0.0499
